The full ranking holds about 2,900 compounds; the median of “NF-kB SEAP reporter activity, fold change vs agonist alone” is about 0.99, and the highest 2% start at about 2.6. Some of the results follow.
Assays:
[1] = test system: RAW-Dual; assay: NF-kB SEAP reporter activity, fold change vs agonist alone; cytotoxicity flag (confluency mask): not cytotoxic; higher = enhanced NF-kB activity
Method in brief: (§1)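 RAW-Dual macrophages (50,000 cells/well in DMEM, 384-well plates) received 50 nL of library stock by pin tool, then a PRR agonist 1 h later, and were kept at 37 °C, 5% CO2. After 20 hours, supernatant was read for IRF by QuantiLuc luminescence and for NF-κB by QuantiBlue absorbance at 620 nm. Reporter activity is fold change over agonist-alone wells. Cytotoxic wells had IncuCyte confluency below 70% of agonist controls in both mask sets.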

[2] = test system: RAW-Dual; assay: NF-kB SEAP reporter activity, fold change vs agonist alone; higher = enhanced NF-kB activity; details: cytotoxicity flag (confluency mask): not cytotoxic
Method in brief: as §1

[3] = agonist: ODN 1826 (TLR9) 0.5 ug/mL
[4] = agonist: Pam2CSK4 (TLR2/6) 0.1 ug/mL
[5] = agonist: Pam3CSK4 (TLR2/1) 0.1 ug/mL
[6] = library stock concentration (final ~1000-fold dilution): 10 mM, agonist: Imiquimod (TLR7) […]
[7] = library stock concentration (final ~1000-fold dilution): 10 mM, agonist: MPLA (TLR4) […]

With `O=C(CCCS)NC1CCN(C(=O)COc2ccc(Cl)cc2Cl)CC1` (library stock concentration (final ~1000-fold dilution): 10 mM) the “NF-kB SEAP reporter activity” value ([1]; agonist: LPS (TLR4) 0.1 ug/mL) was 1.87, the “NF-kB SEAP reporter activity” value [1, 3] was 1.1 and the “NF-kB SEAP reporter activity” value [1, 4] was 0.978. The “NF-kB SEAP reporter activity” value [1, 5] was 1.35.

`O=C(CCCS)NC1CCN(C(=O)COc2ccc(Cl)cc2Cl)CC1` was tested, and the “NF-kB SEAP reporter activity” value [2, 6] was 0.922 and the “NF-kB SEAP reporter activity” value [2, 7] was 1.09.

`CCOC(=O)C(CCc1ccccc1)NC(C)C(=O)N1C(C(=O)O)CC2CCCCC21` (stereo not given) was tested, and the “NF-kB SEAP reporter activity” value [2, 6] was 0.911 and the “NF-kB SEAP reporter activity” value [2, 7] was 1.04.

In the case of `CCOC(=O)C(CCc1ccccc1)NC(C)C(=O)N1C(C(=O)O)CC2CCCCC21` (stereo not given) (library stock concentration (final ~1000-fold dilution): 10 mM), the “NF-kB SEAP reporter activity” value ([1]; agonist: LPS (TLR4) 0.1 ug/mL) is reported as 1.25, the “NF-kB SEAP reporter activity” value [1, 3] is reported as 1 and the “NF-kB SEAP reporter activity” value [1, 4] is reported as 1.01. The “NF-kB SEAP reporter activity” value [1, 5] was 0.933.

In the case of `CC(C)CC(CC(=O)NO)C(=O)NC(Cc1ccc2ccccc2c1)C(=O)NC(C)C(=O)NCCN` (stereo not given) (library stock concentration (final ~1000-fold dilution): 10 mM), the “NF-kB SEAP reporter activity” value ([1]; agonist: LPS (TLR4) 0.1 ug/mL) is reported as 1.55, the “NF-kB SEAP reporter activity” value [1, 3] is reported as 1.11 and the “NF-kB SEAP reporter activity” value [1, 4] is reported as 1.02. The “NF-kB SEAP reporter activity” value [1, 5] was 1.1.

With `CC(C)CC(CC(=O)NO)C(=O)NC(Cc1ccc2ccccc2c1)C(=O)NC(C)C(=O)NCCN` (stereo not given) the “NF-kB SEAP reporter activity” value [2, 6] was 1.09 and the “NF-kB SEAP reporter activity” value [2, 7] was 1.34.

`O=P(O)(O)OC(CO)CO` (library stock concentration (final ~1000-fold dilution): 10 mM water) was tested, and the “NF-kB SEAP reporter activity” value ([1]; agonist: LPS (TLR4) 0.1 ug/mL) was 1.11, the “NF-kB SEAP reporter activity” value [1, 3] was 1.12 and the “NF-kB SEAP reporter activity” value [1, 4] was 1.2. The “NF-kB SEAP reporter activity” value [1, 5] was 1.13.

For `O=P(O)(O)OC(CO)CO`, the “NF-kB SEAP reporter activity” value ([2]; library stock concentration (final ~1000-fold dilution): 10 mM water, agonist: Imiquimod (TLR7) […]) was 0.936 and the “NF-kB SEAP reporter activity” value ([2]; library stock concentration (final ~1000-fold dilution): 10 mM water, agonist: MPLA (TLR4) […]) was 1.02.

`COc1cc(N2CCC(N3CCN(C)CC3)CC2)ccc1Nc1ncc(Cl)c(Nc2ccccc2P(C)(C)=O)n1` was tested, and the “NF-kB SEAP reporter activity” value ([2]; library stock concentration (final ~1000-fold dilution): 2 mM, agonist: Imiquimod (TLR7) […]) was 1.15 and the “NF-kB SEAP reporter activity” value ([2]; library stock concentration (final ~1000-fold dilution): 2 mM, agonist: MPLA (TLR4) […]) was 1.26.

With `COc1cc(N2CCC(N3CCN(C)CC3)CC2)ccc1Nc1ncc(Cl)c(Nc2ccccc2P(C)(C)=O)n1` (library stock concentration (final ~1000-fold dilution): 2 mM) the “NF-kB SEAP reporter activity” value ([1]; agonist: LPS (TLR4) 0.1 ug/mL) was 2.66, the “NF-kB SEAP reporter activity” value [1, 3] was 1.27 and the “NF-kB SEAP reporter activity” value [1, 4] was 1.28. The “NF-kB SEAP reporter activity” value [1, 5] was 1.66.

`O=C1NCCCc2c1oc1ccc(O)cc21` (library stock concentration (final ~1000-fold dilution): 10 mM) was tested, and the “NF-kB SEAP reporter activity” value ([1]; agonist: LPS (TLR4) 0.1 ug/mL) was 0.884, the “NF-kB SEAP reporter activity” value [1, 3] was 0.617 and the “NF-kB SEAP reporter activity” value [1, 4] was 0.904. For the same molecule, the “NF-kB SEAP reporter activity” value [1, 5] was 1.02.

In the case of `O=C1NCCCc2c1oc1ccc(O)cc21`, the “NF-kB SEAP reporter activity” value [2, 6] is reported as 0.984 and the “NF-kB SEAP reporter activity” value [2, 7] is reported as 0.876.

For `COc1ccccc1OCC(O)COC(N)=O` (stereo not given) (library stock concentration (final ~1000-fold dilution): 10 mM), the “NF-kB SEAP reporter activity” value ([1]; agonist: LPS (TLR4) 0.1 ug/mL) was 1.02, the “NF-kB SEAP reporter activity” value [1, 3] was 0.946 and the “NF-kB SEAP reporter activity” value [1, 4] was 1.04. For the same molecule, the “NF-kB SEAP reporter activity” value [1, 5] was 1.11.

With `COc1ccccc1OCC(O)COC(N)=O` (stereo not given) the “NF-kB SEAP reporter activity” value [2, 6] was 0.897 and the “NF-kB SEAP reporter activity” value [2, 7] was 0.786.

With `NC(=O)C(=Cn1cnc(-c2cc(C(F)(F)F)cc(C(F)(F)F)c2)n1)c1cncnc1` the “NF-kB SEAP reporter activity” value [2, 6] was 0.765 and the “NF-kB SEAP reporter activity” value [2, 7] was 0.772.

With `NC(=O)C(=Cn1cnc(-c2cc(C(F)(F)F)cc(C(F)(F)F)c2)n1)c1cncnc1` (library stock concentration (final ~1000-fold dilution): 10 mM) the “NF-kB SEAP reporter activity” value ([1]; agonist: LPS (TLR4) 0.1 ug/mL) was 0.331, the “NF-kB SEAP reporter activity” value [1, 3] was 0.334 and the “NF-kB SEAP reporter activity” value [1, 4] was 0.13. For the same molecule, the “NF-kB SEAP reporter activity” value [1, 5] was 0.148.

With `COc1ccc(CCc2nc3cc(-c4c(C)noc4C)ccc3n2CC(C)N2CCOCC2)cc1Cl` (stereo not given) the “NF-kB SEAP reporter activity” value [2, 7] was 2.65.

`COc1ccc(CCc2nc3cc(-c4c(C)noc4C)ccc3n2CC(C)N2CCOCC2)cc1Cl` (stereo not given) (library stock concentration (final ~1000-fold dilution): 10 mM) was tested, and the “NF-kB SEAP reporter activity” value ([1]; agonist: LPS (TLR4) 0.1 ug/mL) was 4.47.
